In the supplement of paper PMC10126150:
Sequences with one replicate were seen in a single cluster, so their values are uncertain.

Test system: ATP
Test: switch fluorescence ratio, 500 uM ATP over buffer (Cy3 cluster intensity, sum of 5 cycles each) (fold (ratio)); higher = stronger signal-on switching upon ATP binding; sequences stand for … in TCGTCGGCAGCGTCAGATGTGTATAAGAGACAGTTTTTTTTTTTTTTTTTTTTTTTTT…TC
Conditions: aptamer strand: ATP DNA aptamer (quencher-CACCTGGGGGAGTATTGCGGAGGAAGG + anchor), 100 nM annealed; ATP concentration: 500 uM; one replicate
Method in brief: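 Per cluster, summed Cy3 intensity from the target cycles was divided by that from the buffer cycles to give the fluorescence ratio, then averaged per switch-domain sequence. Clusters outside 100-1000 RFU were excluded. The Cy3-labelled switching-strand clusters, on a modified Illumina MiSeq flow-cell, were annealed to 100 nM quencher-labelled ATP aptamer and imaged in selection buffer, then after 15 min with 500 uM ATP at 22 °C, for five cycles with NaOH stripping and re-annealing between them.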
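Note: ATP exposure 15 min at 22 °C before imaging.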

Sequence	switch fluorescence ratio
AAGTGCTGGA	1.02
CGAATTCCAT	1.01
ACGCGCGATA	1.13
GAGAATGGTC	1.01
TATGCTCC	1.08
AGAGTTTAGG	0.997
AGATTCGGCA	1.01
CGAAACGCGT	0.966
CCGGGGGATA	1.05
ATTGGTAATC	1.02
AAATTGCTGG	0.976
TCGATATAAC	1.01
AATTAACTCA	1.06
ACAGGTTTGG	1.01
CGACACGTGT	0.986
CAATGGGAAC	0.992
TGTCGCTTTG	1.05
CTGAGGAACT	0.981
ACAGCGCTCA	1.06
ACGTAGCG	1.16
AACCCAAACT	1.05
ACAGTCATCA	1.03
TATGTAGTCC	1.01
TTACCTTTGA	1.02
TGATACGGGC	1.07
ACTCACCTCG	1.28

Sequence	switch fluorescence ratio
TTGTAAGC	0.999
CATGGGGAGG	1.01
ACGTCGAAGG	0.981
TGAGAGTGTA	0.947
CAAAGTATAA	0.99
CATATGCGGT	1.01
GCGGATGACC	0.961
TTGAGTTCGA	0.988
GACGCTATTC	2.55
CATTGCAACC	1.51
TAGTTGGTCA	0.976
TTTAGACCGC	1.02
GAGGTCGCCC	0.992
GTTTAGAGTT	1.02
GCGATATCGT	1.03
ACCAGCGGCC	1.04
GATGTGATCA	1.04
CGGGAGTGGG	0.955
AAGTGGCACG	0.991
GTACTGGGCC	1.02
AATATGTGGC	1.01
AGGCACTGAA	0.995
GCTGATTCCT	0.992
TTCATCTGAC	1.11
ACATGCGTAC	1.15
TTAAACACAG	1.05

Sequence	switch fluorescence ratio
CGAAGAATGA	0.986
ACCACTTTGA	1.01
GAGGGGAGCC	0.965
ATACTTGTTA	0.959
GTCCCTGTGG	1.01
AACCGTGGAA	1.02
TCGTACTAAT	1.01
TAGTTACGAG	1.03
ATGAGGATC	0.981
GTAGCGTTAG	1.04
GATCAACCGG	1.02
TGATTTATGC	0.955
TCTGTATTAG	1.04
CTGCACTACC	3.21
GCCTGGTGAC	1.24
CTGGTAACAA	1.05
GCCAAAAGAG	1.02
ACATCCGGTG	1.07
CCACGATTA	1.15
TGACTATTG	0.971
CGGCATAGCG	1.1
CTGGCAGATG	1.02
GGGGTTTCGC	1.09
ATGTCTTGGA	0.99
GTCATTCGA	0.979
CACCAGATTT	1

Sequence	switch fluorescence ratio
CAAATAAATC	0.972
TAGCTGTAAG	0.946
GTGTGTGTG	1.01
GAGATGGGAA	1.01
ACATAGAAAT	1.02
TTTAACGCGG	0.974
AGTAGCTAAT	1.02
ACTAGCATTC	2.03
TATGCGGCG	0.972
TCACGGGGCC	1.06
TTAAACCTCG	1.12
GGGGTGTATG	0.997
AGCGATAGAG	1.05
GCTTGCATAG	1.03
GCCAAAGTTG	0.922
TTGATGTAGA	1.02
GATTGCCGTT	1.05
AAGATCA	1
GAATTCGTTC	0.952
TGAGAGTCTT	1.01
GCAAGGGATG	1.03
TGGCCTAACA	1.02
AATAGGGGGC	0.922
TGGCCAGCAC	1.07
GGGGACGAAC	1.24
ATTTTGCACC	1.01

Sequence	switch fluorescence ratio
TTAGTAGTCA	0.989
CAAGTACGAA	1.12
CTGCCCAGGG	2.41
ACCCTCAACC	1.07
AATCTACCAA	1.07
ACCTGGGATT	1
GCGTAGTGTG	0.981
ACGGGTGTTT	0.962
ACTCGAAGA	1
GGATCAGGCG	0.965
TGCGGCACAA	1.07
ATTTCACACG	1.04
AAGTTAGAAT	0.988
TCACGTTATT	1.17
TGCGCTAACG	1.04
ATGACGCTCT	0.949
GGATTGATAT	1.03
AATCAAGGCT	1.02
CATATGCCGG	1.05
AGGTATTAAG	1.05
TGACTAGTAT	0.986
TAGAGGTTAC	0.974
GGGCGTTGAA	0.989
ATGGACAAA	1.01
TATAATGCTT	1
AGCTAGAAAT	0.995

Sequence	switch fluorescence ratio
ATTCCCGTGA	1.12
TGTAGGTGTC	0.997
ATCAAGTTGT	0.99
TTTAGTGTA	1
ATGATTCGGG	0.97
CTCGGTCGGT	0.988
GCTAGTGGCT	1.01
CTTTAACGCG	1.01
TGATCAGCTG	0.99
GGGGAGCAAC	1.23
TCGCTTAACC	1.03
GGGTCCTCGT	1.06
CTAATCTTTC	1.14
GTAGTTCCAT	0.983
CGCAGAGCGG	1.02
CGGCCTTTAA	0.96
TCCGTTTATT	1.07
ACGGGGTTAA	1.03
AAGAGCAACC	1.15
CTTGGCGAAG	0.993
GCCCACTTCC	1.73
GAGTTAGGTT	0.978
TAGTGTCTGC	1
GCCGAGTGTG	1
CAGTGCCGA	1.06
TGGTTAAGAC	0.985

Sequence	switch fluorescence ratio
GAAATGTTTA	0.97
CAAGATGTTC	1.01
AATATAGAGC	1.02
ACGCTTATTT	1.04
CTCTGTTTAT	1.06
AGGATTCATC	0.968
CTAGGTAGTA	0.962
GTGGATATGT	0.983
TCAGTCTTAG	1.04
GTGACGTCC	0.996
CGGAGACCAT	0.997
TGCGACGTT	1
TGCGCTACGC	1.03
CGTTGCATCA	1.01
AGAGTACTTT	0.997
TACTTTGTCG	1.07
CTCGAATCCT	1.05
ATGGCGCGAC	1
TCACGTATTT	1.24
ACGGTTCGTA	1.01
ACGCTCGAG	1.04
AGTCACAGAG	1.02
ATATAGGCAA	1.13
CTAATAACTT	1.02
GTACTGACGC	1.18
ATGGACGGCA	1.06

Sequence	switch fluorescence ratio
GTTGGTACCA	1
CGGTCCTTTT	0.986
TTGAGGCAAA	1.22
TATTGTCGGT	0.968
AATGTGCTGA	1
AGTCAGGTTA	0.995
TTGCGCAATG	1.57
GGCAGCGTTG	0.965
ATTGTGCGTT	0.979
ATTTGAAGAC	1.05
GACACCTATC	1.2
TTAGACAAGA	0.997
TTTGGCATCG	0.999
TAGTGGTCGG	0.968
CCAGATTCTG	0.986
CAATCTATGG	0.999
TACATCGATG	0.952
TGAGCGATAT	1.92
TGGAATAAGT	1.02
